Measurements: the supplement of paper PMC11417369
This is one part of the list.

Test system: PfSIP2 AP2 domain 1 (GST-tagged)
Assay: gcPBM binding intensity (ln(normalized median fluorescence intensity)); higher = stronger DNA binding
Outline: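 Binding intensity is defined as the maximum Masliner-normalised natural-log median intensity across replicate spots for either probe orientation. It was measured on an Agilent 4 × 180k array of primer-extended double-stranded 36-bp intergenic genomic probes and negative controls, to which GST-tagged P. falciparum DNA-binding domains made in E. coli were applied for 1 h in 1× PBS with 1% milk, 0.2 mg/ml BSA, 0.5% salmon testes DNA and 0.03% Triton X-100. Detection was by Alexa488 anti-GST antibody and scanning at 488 nm.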

Sequence | gcPBM binding intensity (ln)
AATAATGAAACAGGAAAAAAATATTGTTAAAATGTA [XGTACX_negctrl_site400] | 7.04
TATTAATCTTTTTTTAAACAAAAAATTAAGCAAATT [CACACA_negctrl_site884] | 6.82
AATTATTGTGAAGGGAAAACAAAAAAGTTTATAATT [CACACA_negctrl_site1337] | 6.87
AAGCGAATATATATCACACACAAAAAAATCAGACTA [CACACA_site2108] | 6.9
AACTAATAAAAAAAAAGTACACAATATGTAAATAAC [XGTACX_site5263] | 7.24
AACAAATATATTAACACACAAACATATAAACCAATG [CACACA_site3970] | 7.19
TATATATTATATATATGTACATACTTTTTACGTTCA [XGTACX_site2493] | 7.12
AAATTAATTAAATATACACACATATATAGATATATA [CACACA_site6321] | 6.86
ACCACATTTTTTTTTGCATGTTGTTTAAAAAAAGGC [TGCATGCA_site137] | 7.16
TATATATAATATATATGTACATAATATATTTTATAT [XGTACX_site2909] | 7.48
TAAAACACTCATGGCACACATAAAACATTTTTATGA [CACACA_site3574] | 7.11
TATAAAAAATAATTATCATGAAATATATGATCATCA [TGCATGCA_negctrl_site137] | 6.63
ATTATTATTTATATGATACACACGTACATATACGCA [CACACA_site3823] | 7.04
TTAAAAAAAATATAATGTACTTGTAGAATTATATTT [XGTACX_site6220] | 6.73
TATATTTTTTATAAATGTACATGGATAGGCATAAAC [XGTACX_site8401] | 7.42
TCAAAAATGAGTTACACACACACATATATATATATA [CACACA_site2229] | 9.58
ATATGAATAAATAAAAGTACATACATAATGTATTAT [XGTACX_site5969] | 6.99
AGTATATAAAATACTGTATCGATGGGGGAGGGCGCA [CACACA_negctrl_site1612] | 8.06
ACAAATAAATAAAAAACACACACAAATAAATAAATA [CACACA_site8708] | 6.81
TAATAATAAAATATTTGTACATATAAAATATGGCTG [XGTACX_site7904] | 6.97
AATATAATGCAATATACACACATATATTTCTCTTTT [CACACA_site7276] | 6.94
AATTTTTTTCTCCAAGTGCATTAGAACATTAACGTA [GTGCAC_site9413] | 8.28

Sequence | gcPBM binding intensity (ln)
ATATATTTATGTATCACACACAAAAAAAAAAAATAA [CACACA_site255] | 6.94
TCCTTATTTTGCAGGAGTACCATTTTTTAAAAATAC [XGTACX_site5968] | 7.26
ACAATTACTTATTTTAATTTTTTTAATCTATTGATT [CACACA_negctrl_site967] | 6.75
AATAACAATTATAAAAGTACAGATTTTTATTTCTAA [XGTACX_site5746] | 6.82
TTTTTTTTGTTATGAACATGCAAATTAAAATATAAT [TGCATGCA_site954] | 6.96
TACTTTTCTTAAAGATGTACGTTTTAAAAATAAAAT [XGTACX_site14] | 7.39
CAACAATTTCGTCATACACACATTCAGAATATATAT [CACACA_site2370] | 6.99
TAAATACATAAAAATTGTACACATTGTTTTCTCTTT [XGTACX_site6435] | 6.71
AAGGAAATAATTAAATGTACAAAAAAAAAAAAAATT [XGTACX_site562] | 6.71
TACAAACAAACACATAGCAATATATGTTATCAAAAA [XGTACX_negctrl_site1] | 6.85
ATATTTTTTTTTCTTTCGCACACGTGAAAGAATTTC [CACACA_site8636] | 7.29
TTTTATGCTCAATTATTAAGAAATACTTTTTCTTCC [XGTACX_negctrl_site208] | 6.68
AAAATAAAAATTAACTGTACATACATTATTCAAATT [XGTACX_site6106] | 6.67
AGAAGTTTATCTTTTAGTACGCATAAAAAAAAAAAA [XGTACX_site2359] | 6.9
TATAAATAATTATATTGTACTCTTTATATTTTTCTT [XGTACX_site5335] | 6.98
TTAAATAGCTGTAATTGTACAAATAAATACATAAAT [XGTACX_site3097] | 6.96
TATAGTAATATTTGAAGTACAAAATTAAAATAAATA [XGTACX_site7634] | 6.82
TTATATAAGGTCTATATATAAATATTAATGATAAGG [TGCATGCA_negctrl_site354] | 6.81
TAAATATATATATGGTGTACCATTTTGGGTTAATAT [XGTACX_site2706] | 7.02
GGGAGGATATTTCACAGTACCCAGGAAATCTGCGGA [XGTACX_site2555] | 6.9
TTAATATTTTGATGTGTACACATTAAAATAGTTTTA [CACACA_site5712] | 7.02
TATATTATTTTTTATTGTACTTAAAAATATTATTTG [XGTACX_site1443] | 7.03

Sequence | gcPBM binding intensity (ln)
TTTTTGTTAATAAGTATGCACTATCTCATTTTTGTA | 8.48
ATATATTTTGGGGACTTTTTAAAAAAGAAGTATTAA [TGCATGCA_negctrl_site337] | 7.23
TAGAAAAAAATAGATGCATGCAATGAATGAATAATA [TGCATGCA_site14] | 7.48
TTTCTATTACGAACGTGTACATACATTATTCTTAAA [XGTACX_site5816] | 7.25
CTATACTATGAAAAGTGTACGAATAGCTAGCTATTT [XGTACX_site5927] | 6.88
TAGTAGTATTCATCCAGTACATATAAATGTATAATA [XGTACX_site7552] | 6.95
GAGCATTACACATATACACACATATAAATAAACATA [CACACA_site7315] | 7.45
GAGAAATTTATACATACACACATATAAATATTATAG [CACACA_site7819] | 7.1
CTTTGCATTACGAACATACACACAGAATAACTGAAA [CACACA_site3024] | 7.32
AATAATATATAAGAAAGTACAAAAAAATAAAATAAA [XGTACX_site3302] | 6.97
TTTTAATGAAATATCAAAAAAATTTATGATTTCAAA [GTGCAC_negctrl_site662] | 6.58
AAAAAGAAAAAACTTACACACATATATACACCCATG [CACACA_site8079] | 6.91
ATATCAAATAGACAAACACACAAAGGAAGAGTGAAA [CACACA_site3921] | 6.75
TTCTTTTTTTTTTTTTTTTTTTTATAGTACAAAAAA [TGCATGCA_negctrl_site450] | 7.17
ATCTATATTATTTCTACACACATATCTATAATATGT [CACACA_site7561] | 7.07
TTTTTTTTTTTGTGTGCATGTGCTAGGAAAGGTAGG [TGCATGCA_site330] | 7.88
TTTCAATGTGACACGTGTCCGTAAAATTACATAATT [XGTACX_site7073] | 6.96
ATTAATAAAAGATAAAGTACAAATCGGAAAATGAAT [XGTACX_site7846] | 7.09
TTGTTCATCTTTTTTTTTTTTTTTTTTTTTTAAATC [CACACA_negctrl_site191] | 6.72
AAGATTAAACATTGCACACAGAAATATATTTTCTAT [CACACA_site2374] | 7.12
TGAACTCATAGGAAAACACACATATGTGCAATATAT [CACACA_site6231] | 7.34
ACAATGATAGTGTAAAGTACATATATATAAAAAAAT [XGTACX_site5928] | 7.31

Sequence | gcPBM binding intensity (ln)
TGTTATTATTAAGACACACACACAAAAAAAAAAAAA [CACACA_site1481] | 7
TTTATAATATGTTATACATGCAGGTACCTTTTTGTA [TGCATGCA_site746] | 6.87
ATTTATAATTTTTGAGCACACACAAGCATATATATA [CACACA_site8531] | 7.16
TTTTGAATATATTAAATAAATTAAAAATCTACAAAC [GTGCAC_negctrl_site622] | 6.96
AGATCATAATATTATACACACATTATATATCTGTAA [CACACA_site4925] | 6.88
TAATAAATTCAAAACATAAAAAGGAAAAAAAAAAAA [CACACA_negctrl_site1330] | 6.8
TTATTATATACAAAATGTACACAGAATAATTTGAAT [XGTACX_site2314] | 7.16
ATATATATATATATATGTACATAATATATTATATAT [XGTACX_site924] | 9.82
TTTTTTTTTTTTTTGGTGCAGTTCACATATTATATA [GTGCAC_site9996] | 9.48
TGTGTAAGCACATACAAACACACAACCTTATTTTTA [CACACA_site2187] | 6.8
TATATTAACAAAATGGTGCAATAATTTCTATATTGT [GTGCAC_site9430] | 9.87
TTATTATATTAAAAGAGGACACATTTATTTTTTTTT [XGTACX_site1241] | 6.88
AAAATATTTAATAGAAGTACACATGTATATATACAT [XGTACX_site8942] | 7.03
AAAAAAAAAAAAAAAAAAAAAAAAAAAAATAAAAAA [CACACA_negctrl_site59] | 8.71
ACGATTCAAAGGGAATATAAAATATTATTATCTATA [CACACA_negctrl_site1739] | 6.72
AATAGAATAATCCTTACACACACACCCACACGAATA [CACACA_site8053] | 7.22
AACCAATATGCGTATACACACATAAATATAAATATA [CACACA_site3780] | 7
TTTTTTTTTTTTTGAACACACATTATTAATTTTTAT [CACACA_site308] | 6.89
ATATATTTTTTTTATACATGCAATGCATTTACGTTG [TGCATGCA_site565] | 7.19
TTTTTTATATATTAGGAATTTATAAAATTAGAAGGT [GTGCAC_negctrl_site617] | 7.64
AACCAGTTGATGTGTACACATATAGTAATAATTTTA [CACACA_site5564] | 7.05
